± gives the standard deviation of the averaged measurements. The list shows a part of the results.
These sequences were tested on PfAP2-LT AP2 domain (GST-tagged) (assay: gcPBM binding intensity (ln(normalized median fluorescence intensity)); higher = stronger DNA binding).
In short: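 The binding buffer was 1× PBS containing 1% milk, 0.2 mg/ml BSA, 0.5% salmon testes DNA and 0.03% Triton X-100. In it, GST-tagged P. falciparum DNA-binding domains expressed in E. coli were applied for 1 h to an Agilent 4 × 180k array of primer-extended double-stranded 36-bp intergenic genomic probes plus negative controls. Binding intensity, read with Alexa488 anti-GST antibody and a 488 nm scan, is the highest Masliner-normalised natural-log median intensity across replicate spots of either probe orientation.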

| Sequence | gcPBM binding intensity (ln) |
| --- | --- |
| AATATATAGGTATTTACACACAATGTGAGATCTATA [CACACA_site3407] | 9.03 ± 0.31 |
| ATTTATGAAAAGTAAAGTACACACAGGAAAAAAAAA [XGTACX_site3564] | 9.1 ± 0.54 |
| GTCAACTTGTGATAAGTGCATATATATAATAAAATG | 8.86 ± 0.44 |
| AAAAAAATATAATATTTGAATAAATATAATAATATG [XGTACX_negctrl_site477] | 8.4 ± 0.57 |
| CGAAATAAATCTTATGCACACAAATAATTAATTAAA [CACACA_site8491] | 8.88 ± 0.4 |
| AATTATCAAAGTCTATACATACATACATACATACAT [GTGCAC_negctrl_site243] | 9.09 ± 0.33 |
| TAATTATAATAAAAAGGTACAGAAAAGTTATACTCA [XGTACX_site6111] | 8.64 ± 0.52 |
| GTTATAACTCAAATATGTACATATTATAAAACATAT [XGTACX_site6693] | 8.77 ± 0.3 |
| TTATAGAACTATATTGCACACATAATATATATATAT [CACACA_site9042] | 9.07 ± 0.35 |
| TATAAAAATAAGCACACACACAAATATATATTTATT [CACACA_site922] | 9.71 ± 0.2 |
| AAAAAAAAAAAAAAAGGTACACAAATACGTCCTGCA [XGTACX_site3354] | 8.79 ± 0.42 |
| TATACATATTTACAAGTGCATAATATTTTACAAAAA | 8.54 ± 0.39 |
| ATAAAATAAATAAATATAAATATATATATATATATA [TGCATGCA_negctrl_site358] | 9.11 ± 0.19 |
| CACTCTTAAAATAAGGTGCACTATATAACGTGATTA [GTGCAC_site9422] | 8.71 ± 0.4 |
| AAAAGAAAAGAGAGGAGTACAAAATATAATTATCTA [XGTACX_site5172] | 8.76 ± 0.77 |
| AAAAAAAAAAAAAGAACACACACAGTGCACATTCGG [CACACA_site8163] | 9.18 ± 0.46 |
| TGTATATATTAATGTACACACATGCGTATGTTCGTT [CACACA_site3583] | 9.33 ± 0.38 |
| TTATTTATTTATATAGTGCAATAAACACATAAATAG | 8.35 ± 0.34 |
| CATATTGGTATGCTCATGCACTTTTATTTTGTTATT [GTGCAC_site9553] | 9.15 ± 0.57 |
| AATTAGATACTAACAAGTACATATATATATATATAT [XGTACX_site2252] | 9.84 ± 0.12 |
| TTTCCCTAATGAAAGTGTACCTGTGAGAAAAAAAAG [XGTACX_site194] | 8.54 ± 0.39 |
| ATTTAGATTAACACTTGTACATAATACATACAAATA [XGTACX_site4147] | 8.54 ± 0.42 |
| ATTTTTTTTTGTGTATATAAATAAATAAATATATAT [GTGCAC_negctrl_site603] | 8.37 ± 0.39 |

| Sequence | gcPBM binding intensity (ln) |
| --- | --- |
| TTGTAATTATTAAACACACACAAAATATCTAGAATA [CACACA_site7231] | 9.09 ± 0.35 |
| CCGTAGTTTTAAAATAGTACTTTTATGGTTAATAAA [XGTACX_site3162] | 8.35 ± 0.48 |
| TTTTTTATTTTTTTATTGTTTTATTGTTTCATTGTT [XGTACX_negctrl_site128] | 8.93 ± 0.63 |
| TTACTACTATATTATACACACATATATTTATTTATA [CACACA_site7274] | 9.01 ± 0.45 |
| TATAAAAAGCAAAACAAAAAAACAAATTGAAAAATT [TGCATGCA_negctrl_site158] | 8.63 ± 0.54 |
| TATAAATAATAAAGATGTACTTTTTATGATTCCTAC [XGTACX_site7003] | 9.21 ± 0.25 |
| CAATTTATTTTTATTACACACTATCCAAATAATTTC [CACACA_site2956] | 8.7 ± 0.46 |
| CCATAAAATCATAAGCGTACTTAATATATTTTACTT [XGTACX_site559] | 8.74 ± 0.34 |
| AGCATACATATTTTTTGTACATATATATATATATAT [XGTACX_site8536] | 9.72 ± 0.23 |
| TATATAATAATTTAGAGTACTGATAAAATATTCCAT [XGTACX_site6200] | 8.49 ± 0.44 |
| AACATACGACAATACGCACACATATATGTACATATT [CACACA_site1917] | 9.47 ± 0.33 |
| TTAAACAATTTAGACATACACACAAAAATAATATTA [CACACA_site385] | 8.97 ± 0.4 |
| TAATTTTTCCTTTTTGCACACATTAACGTCGACGAA [CACACA_site4025] | 9.12 ± 0.38 |
| CCCTGCCTCTCTTTGGTGCGTTGTAACCCTCGAGGA | 8.86 ± 0.45 |
| AAAAAAAAAAAAAGCACACACACATATGTGTATATA [CACACA_site8225] | 9.54 ± 0.28 |
| TAAATTGTATATGAGACTATACTATAAAAGTATGAA [XGTACX_negctrl_site22] | 8.6 ± 0.35 |
| TGTCTGTGCGGGTGTACACATTTCATATTACCCAAT [CACACA_site5593] | 9.05 ± 0.39 |
| AACCTTACACAAGGGGTGCAATATTATTTCGATAAA [GTGCAC_site9600] | 8.65 ± 0.43 |
| TAATTTATAAAAAATTGTACATTAAACATATATATA [XGTACX_site5164] | 8.37 ± 0.47 |
| TGCTCCTATTATATAGTGCATTTATTTTAATAAACG | 8.47 ± 0.38 |
| TCTTTTCGTTCATGCTGTACTTAATTGCTCTAATTT [XGTACX_site4816] | 8.99 ± 0.53 |
| ACTAATATGTATATATATATATATATATATATATAT [CACACA_negctrl_site141] | 9.72 ± 0.071 |
| TACATATTTAAATACTGTACTCAAAAGAATTGTGCA [XGTACX_site2250] | 8.56 ± 0.42 |

| Sequence | gcPBM binding intensity (ln) |
| --- | --- |
| ATCAAAAAAAAAAAAAGTACACAAAATTTTTTATTA [XGTACX_site7986] | 8.49 ± 0.52 |
| TATATGTGTGTTATATGTACTTATATATATATATAT [XGTACX_site5570] | 9.275 ± 0.064 |
| AAGGTTTAAAATTACTGTACAAATATAAATAAATAT [XGTACX_site3756] | 8.7 ± 0.41 |
| ATAATGAACAAAGTAGTGCACTTTCCTTATCTTTTC | 8.87 ± 0.46 |
| GTTTATCACAGCCACGCACACATAATATCTGTATAT [CACACA_site5929] | 9.32 ± 0.38 |
| CTTATATTGTACAGTACACACCTTTATAATGTTATT [CACACA_site4280] | 9.15 ± 0.44 |
| GATTATTAATAGTAACGTACATATGTTATAAAATAT [XGTACX_site5277] | 8.94 ± 0.47 |
| TATAGTATTCTAAATGCATGTAAATTATGTATATAT [TGCATGCA_site931] | 8.8 ± 0.28 |
| TATATTATACTAAGAAGTACAATATTTTTATTGTAA [XGTACX_site2810] | 8.35 ± 0.34 |
| TAGTAAAAACCAAAATGTACATGTGCCATTTTTTTA [XGTACX_site2630] | 8.71 ± 0.45 |
| AAATTCCACGAACACACACACATATAAATAAATAAA [CACACA_site6697] | 9.65 ± 0.36 |
| ACATCAAGCAGACACACACACACACGCACACGCACA [CACACA_site6309] | 10.4 ± 0.17 |
| ACTATTCATGCATATACACACACATATATATATATT [CACACA_site9309] | 9.58 ± 0.33 |
| TTGTTTCTCTTTAAAAGTACAAAAATGGTTACATAT [XGTACX_site3109] | 8.51 ± 0.49 |
| TAGATTTTTTAATGTTGTACAAATATACGATATATA [XGTACX_site3258] | 8.57 ± 0.32 |
| AAATATATATAAAAGTGTACATTTGTTATAATCAGT [XGTACX_site4822] | 9.01 ± 0.36 |
| TAGATATATAATTTTTGTACGTAGTCGAATCTCAGA [XGTACX_site765] | 8.54 ± 0.39 |
| AACATTAAAAGGGATACACACATATAAATAAATAAT [CACACA_site489] | 9.29 ± 0.45 |
| CTCAACAAAATATGAGTGCATTGTTATTACATATAT | 8.93 ± 0.48 |
| TTATATATTTCTACTCATATTACAATGTGAGAAATA [CACACA_negctrl_site873] | 8.3 ± 0.42 |
| CCAACTAAAAAGGAATGTACATAGTTATGGTTGGAA [XGTACX_site8762] | 9.04 ± 0.53 |
| ACTTTAAACAAAAAAAGTACTCTTTAATGAATATAT [XGTACX_site7176] | 8.39 ± 0.43 |
| TATATATATATATATATATATATATATATATGTTGT [TGCATGCA_negctrl_site24] | 10.24 ± 0.085 |

| Sequence | gcPBM binding intensity (ln) |
| --- | --- |
| CAATTTCTCTTAATTTGTACATATATGTTATACAAA [XGTACX_site3231] | 8.65 ± 0.43 |
| CAATATTTTATTTAAGCATGCTCTAGGGTGTAAAAG [TGCATGCA_site1001] | 8.59 ± 0.45 |
| TATAAATATATTTATACACACATTAGTGTATACATG [CACACA_site7397] | 9.04 ± 0.45 |
| TCGTGTTAAATTTTTACACACAAACTTGCAATAATT [CACACA_site3824] | 9.04 ± 0.3 |
| AACTATAACTAAAAAAATCACATAAAATATTTTATT [TGCATGCA_negctrl_site363] | 8.44 ± 0.46 |
| AGGTGAAAAATATATAATAATGTAACAAAAAAAAAT [XGTACX_negctrl_site394] | 8.9 ± 0.58 |
| TGTTCTATTCTATTATTATTTACAAATTATAAATAA [GTGCAC_negctrl_site232] | 8.39 ± 0.38 |
| ATATATTTATAATAGGTGCATATGTTTTATTTTTCC [GTGCAC_site9849] | 8.82 ± 0.42 |
| TATATATATTAGTGTGCACACTTTTTATTTTTATCC [CACACA_site8506] | 9.44 ± 0.53 |
| TGTAATAAATAGTACACACACACATATATATATATT [CACACA_site1388] | 9.76 ± 0.11 |
| AGATATGTTTTTAATTGTACATAAATACACAAATAT [XGTACX_site5981] | 8.62 ± 0.4 |
| AAAGAATTATATAAGGTGCACGAATGTTTCTTTAAT | 8.89 ± 0.38 |
| ATATGTGTGTGTATTTGTACCCAATTTTTATATATA [XGTACX_site4948] | 9.47 ± 0.16 |
| AAAAAAAAAAAAAAAAAAAAAATACATATATATATA [CACACA_negctrl_site290] | 9.05 ± 0.38 |
| ATATTTTTTTTTGTTAGTACTCATATTTGTAGTTTT [XGTACX_site7280] | 9.02 ± 0.59 |
| TTTTTAATTTCAATGGTGCAGTAATAATATAATAGT | 8.48 ± 0.38 |
| CATTTAAGACAAATTACACACGTATGCCAAATATAT [CACACA_site431] | 9.18 ± 0.33 |
| AATATATATAATTATAGTACAGAAAATTAAAAAAGA [XGTACX_site2943] | 8.72 ± 0.61 |
| TATATCTTATTTAACACACACAAAGAAAATAGAAAA [CACACA_site3732] | 9.02 ± 0.4 |
| AACAATAAAAATAATTGTACAAGTTTAAAAAAAATT [XGTACX_site1987] | 8.81 ± 0.49 |
| TCTTTAAATTTCTCAACACACAGTTATAAAAAATAA [CACACA_site2856] | 8.26 ± 0.47 |

Source: the supplement of paper PMC11417369
